According to PMC8121881:
Read-outs that look alike come from different tables or passages of the source. Results are given in words; binding and its absence hold for the method and conditions named. Binding seen in cells or lysates may run through a third protein. Some results given as binding are weak or reduced against the parent protein; the word gives no strength. For some of these results: Where a sequence is shown, tags or fusion partners need not be part of it. One block for each molecule: values may come before it.

Amino acid sequences for entries named in this document (tags omitted).
UniProt Q99496: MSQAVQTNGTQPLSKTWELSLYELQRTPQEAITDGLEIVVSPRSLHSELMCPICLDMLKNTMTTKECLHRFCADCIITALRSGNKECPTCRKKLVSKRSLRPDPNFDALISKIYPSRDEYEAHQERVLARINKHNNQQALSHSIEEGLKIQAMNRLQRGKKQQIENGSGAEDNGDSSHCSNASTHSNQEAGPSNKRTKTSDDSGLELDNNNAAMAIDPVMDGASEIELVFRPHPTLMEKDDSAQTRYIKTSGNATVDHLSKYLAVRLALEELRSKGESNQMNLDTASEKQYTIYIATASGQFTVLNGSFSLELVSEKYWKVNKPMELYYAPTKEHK
UniProt Q01860: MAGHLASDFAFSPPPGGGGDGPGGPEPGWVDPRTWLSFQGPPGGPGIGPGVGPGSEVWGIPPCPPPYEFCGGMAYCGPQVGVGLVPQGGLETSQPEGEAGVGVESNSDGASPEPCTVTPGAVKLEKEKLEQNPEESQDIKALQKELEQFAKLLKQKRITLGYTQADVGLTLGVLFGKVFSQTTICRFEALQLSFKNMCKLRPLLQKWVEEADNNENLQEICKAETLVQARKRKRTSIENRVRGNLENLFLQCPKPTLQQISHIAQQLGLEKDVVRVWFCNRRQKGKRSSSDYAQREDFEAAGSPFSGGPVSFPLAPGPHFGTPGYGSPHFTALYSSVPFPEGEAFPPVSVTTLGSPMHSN
UniProt P48431: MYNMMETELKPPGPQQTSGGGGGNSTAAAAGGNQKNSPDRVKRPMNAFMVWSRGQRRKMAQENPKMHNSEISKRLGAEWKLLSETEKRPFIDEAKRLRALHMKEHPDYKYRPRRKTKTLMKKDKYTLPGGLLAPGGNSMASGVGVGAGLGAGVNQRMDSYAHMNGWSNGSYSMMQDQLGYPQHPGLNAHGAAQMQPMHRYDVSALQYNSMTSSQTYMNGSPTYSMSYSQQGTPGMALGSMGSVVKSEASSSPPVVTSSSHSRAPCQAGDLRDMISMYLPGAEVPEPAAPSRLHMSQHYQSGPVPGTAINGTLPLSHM
UniProt Q9H9S0: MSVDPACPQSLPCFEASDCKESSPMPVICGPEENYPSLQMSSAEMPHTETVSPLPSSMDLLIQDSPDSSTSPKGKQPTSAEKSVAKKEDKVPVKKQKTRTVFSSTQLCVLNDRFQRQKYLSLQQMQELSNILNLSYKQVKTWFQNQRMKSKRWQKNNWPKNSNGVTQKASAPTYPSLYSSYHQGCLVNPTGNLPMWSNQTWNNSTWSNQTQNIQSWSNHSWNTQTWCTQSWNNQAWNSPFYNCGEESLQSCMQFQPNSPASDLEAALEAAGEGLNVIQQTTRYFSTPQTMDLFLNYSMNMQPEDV

How the values were obtained:
[1] = target: T1, PHC1 (human (endogenous in H9 hESCs)) (UniProt P78364); assay: co-IP; endogenous proteins from total hESC extracts; antibodies against RING1B or PHC1 overnight at 4 °C, Protein A/G magnetic beads, immunoblotting; RING1B IP also done after shRNA knockdown of PHC1
T1 sequence: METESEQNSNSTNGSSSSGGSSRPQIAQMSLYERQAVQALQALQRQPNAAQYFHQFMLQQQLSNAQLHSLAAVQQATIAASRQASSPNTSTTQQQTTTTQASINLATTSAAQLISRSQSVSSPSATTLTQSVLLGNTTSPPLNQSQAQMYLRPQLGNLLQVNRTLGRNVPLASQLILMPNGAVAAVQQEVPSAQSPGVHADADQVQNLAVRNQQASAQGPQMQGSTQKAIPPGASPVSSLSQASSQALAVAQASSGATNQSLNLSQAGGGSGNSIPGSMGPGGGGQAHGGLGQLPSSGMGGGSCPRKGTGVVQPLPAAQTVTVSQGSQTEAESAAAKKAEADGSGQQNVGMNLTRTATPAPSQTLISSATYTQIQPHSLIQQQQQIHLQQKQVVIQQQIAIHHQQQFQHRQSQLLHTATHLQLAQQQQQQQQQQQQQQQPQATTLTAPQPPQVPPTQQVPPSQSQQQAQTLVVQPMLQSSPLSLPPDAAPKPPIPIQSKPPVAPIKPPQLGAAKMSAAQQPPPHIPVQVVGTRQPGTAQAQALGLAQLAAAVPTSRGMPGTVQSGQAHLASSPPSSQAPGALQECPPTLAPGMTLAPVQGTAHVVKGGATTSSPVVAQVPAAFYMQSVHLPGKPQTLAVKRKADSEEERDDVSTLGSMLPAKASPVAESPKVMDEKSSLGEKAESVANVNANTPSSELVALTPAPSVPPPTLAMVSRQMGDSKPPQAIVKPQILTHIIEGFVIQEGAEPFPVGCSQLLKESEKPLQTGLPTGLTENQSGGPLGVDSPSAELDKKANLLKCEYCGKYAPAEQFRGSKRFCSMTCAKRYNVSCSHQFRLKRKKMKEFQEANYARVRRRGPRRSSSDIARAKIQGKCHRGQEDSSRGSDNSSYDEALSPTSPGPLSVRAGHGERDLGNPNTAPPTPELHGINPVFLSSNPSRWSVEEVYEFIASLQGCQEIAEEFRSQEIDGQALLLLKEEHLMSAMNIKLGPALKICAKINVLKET

[2] = target: RING1B (human (endogenous in H9 hESCs)) (UniProt Q99496); assay: as above
PHC1-FLAG = target: T2, PHC1-FLAG (UniProt P78364); assay: co-IP; nuclear lysates of HEK293T cells transfected with PHC1-FLAG and NANOG-HA; anti-FLAG Affinity Gel or anti-HA magnetic beads overnight at 4 °C; washes with 150 mM NaCl, 50 mM Tris, 1 mM MgCl2, 1% NP-40, pH 7.5
T2 sequence: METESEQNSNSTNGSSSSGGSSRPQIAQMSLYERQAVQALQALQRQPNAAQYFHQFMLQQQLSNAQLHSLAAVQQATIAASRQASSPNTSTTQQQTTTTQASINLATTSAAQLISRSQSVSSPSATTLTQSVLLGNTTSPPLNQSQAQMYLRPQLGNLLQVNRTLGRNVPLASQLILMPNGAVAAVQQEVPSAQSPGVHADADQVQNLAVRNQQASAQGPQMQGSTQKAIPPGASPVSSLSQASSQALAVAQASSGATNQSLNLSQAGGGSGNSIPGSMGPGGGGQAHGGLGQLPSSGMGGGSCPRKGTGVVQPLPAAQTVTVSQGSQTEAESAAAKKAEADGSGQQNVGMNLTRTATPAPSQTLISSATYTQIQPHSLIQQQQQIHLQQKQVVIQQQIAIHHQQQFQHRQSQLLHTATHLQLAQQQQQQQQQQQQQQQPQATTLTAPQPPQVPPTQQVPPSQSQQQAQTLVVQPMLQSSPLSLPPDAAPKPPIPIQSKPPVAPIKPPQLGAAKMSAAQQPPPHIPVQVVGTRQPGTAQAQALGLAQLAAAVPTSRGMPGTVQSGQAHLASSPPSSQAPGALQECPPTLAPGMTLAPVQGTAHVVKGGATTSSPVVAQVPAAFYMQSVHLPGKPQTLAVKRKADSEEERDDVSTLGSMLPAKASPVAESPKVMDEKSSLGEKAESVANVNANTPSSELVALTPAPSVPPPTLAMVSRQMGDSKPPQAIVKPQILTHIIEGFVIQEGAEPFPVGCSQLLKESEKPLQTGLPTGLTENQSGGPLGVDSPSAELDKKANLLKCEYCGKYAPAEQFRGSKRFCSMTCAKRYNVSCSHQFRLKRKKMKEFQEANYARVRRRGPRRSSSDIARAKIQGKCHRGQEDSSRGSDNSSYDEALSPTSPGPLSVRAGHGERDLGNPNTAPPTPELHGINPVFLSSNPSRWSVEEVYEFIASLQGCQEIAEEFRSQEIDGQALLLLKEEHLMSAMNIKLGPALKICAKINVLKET

[3] = target: T3, Nanog (mouse (endogenous in mESCs)) (UniProt Q80Z64); assay: co-IP; mESCs overexpressing exogenous Phc1-FLAG; proteins cross-linked with DTBP, nuclear lysates, anti-Nanog antibody at 4 °C overnight, Protein A/G magnetic beads; cross-links reversed with DTT before immunoblotting
T3 sequence: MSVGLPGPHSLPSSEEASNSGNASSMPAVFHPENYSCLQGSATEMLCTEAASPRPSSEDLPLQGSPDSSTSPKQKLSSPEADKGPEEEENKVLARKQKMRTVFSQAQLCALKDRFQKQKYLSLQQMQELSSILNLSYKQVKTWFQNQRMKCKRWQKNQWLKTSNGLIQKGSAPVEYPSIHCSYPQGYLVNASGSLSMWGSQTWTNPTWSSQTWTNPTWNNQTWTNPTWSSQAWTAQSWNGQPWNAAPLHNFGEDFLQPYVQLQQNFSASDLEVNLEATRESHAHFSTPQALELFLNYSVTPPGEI

[4] = target: RING1B (human (endogenous in H9 hESCs)) (UniProt Q99496); assay: co-IP; endogenous proteins from total hESC extracts; antibodies against RING1B or PHC1 overnight at 4 °C, Protein A/G magnetic beads, immunoblotting; RING1B IP also done after shRNA knockdown of PHC1; remark: listed apart in the source

Molecule: OCT4 (from UniProt Q01860 1-360)
binding [1]: no binding

Molecule: OCT4 (from UniProt Q01860 1-360) (other; other documents disagree on this pair)
binding [2]: no binding

Molecule: SOX2 (from UniProt P48431 1-317)
binding [2]: no binding
binding [1]: no binding

Molecule: NANOG (from UniProt Q9H9S0 1-305)
binding [1]: binds

B2: RYBP (protein, UniProt Q8N488 1-228)
chain: MTMGDKKSPTRPKRQAKPAADEGFWDCSVCTFRNSAEAFKCSICDVRKGTSTRKPRINSQLVAQQVAQQYATPPPPKKEKKEKVEKQDKEKPEKDKEISPSVTKKNTNKKTKPKSDILKDPPSEANSIQSANATTKTSETNHTSRPRLKNVDRSTAQQLAVTVGNVTVIITDFKEKTRSSSTSSSTVTSSAGSEQQNQSSSGSESTDKGSSRSSTPKGDMSAVNDESF
binding [4]: binds

Second part, the molecule after the results:

binding (PHC1-FLAG): binds
Molecule: NANOG-HA (from UniProt Q9H9S0 1-305)

binding [3]: binds
B1: Phc1-FLAG (protein, UniProt Q64028 1-1010)
chain: METESEQNSSSTNGSSSSGASSRPQIAQMSLYERQAVQALQALQRQPNAAQYFHQFMLQQQLSNAQLHSLAAVQQATIAASRQASSPNSSTAQQQTATTQASMNLATTSAAQLISRSQSVSSPSATTLTQSVLLGNTTSPPLNQSQAQMYLRPQLGNLLQVNRTLGRNVPLASQLILMPNGAVAAVQQEVPPAQSPGVHADADQVQNLAVRNQQASAQGPQMPGSTQKAIPPGASPVSGLSQTSSQALAVAQASSGASGQSLNLSQAGGGSGNSLPGSMGPGGGGQAPGGLGQLPSSGLTGGSCPRKGTGVVQPLPAAQTVTVSQGSQTEAESAAAKKAEADGSGQQSVGMNLTRTATPAPSQTLISSATYTQIQPHSLIQQQQQIHLQQKQVVIQQQIAIHHQQQFQHRQSQLLHTATHLQLAQQQQQQQQQQQQQQQQQQQQQQGTTLTAPQPPQVPPTQQVPPSQSQQQAQTLVVQPMLQSSPLTLPPEPTSKPPIPIQSKPPVAPIKPPQLGAAKMSATQQPPPHIPVQVVGTRQPGSAQAQALGLAQLAAAVPTPRGITGAVQPGQAHLASSPPSSQAAPGALQECPPALAAGMTLAPVQGTAHVVKGGPTASSPVVAQVPAAFYMQSVHLPGKAQTLAVKRKAESEEERDDLSALASVLPTKASPAAESPKVIEEKNSLGEKAEPVASLNANPPNSDLVALAPTPSAPPPTLALVSRQMGDSKPPQAIVKPQILTHIIEGFVIQEGAEPFPVGCSQFLKETKKPLQAGLPTGLNESQPSGPLGGDSPSVELEKKANLLKCEYCGKYAPAEQFRGSKRFCSMTCAKRYNVSCSHQFRLKRKKMKEFQEASYARVRRRGPRRSSSDIARAKIQGKRHRGQEDSSRGSDNSSYDEALSPTSPGPLSVRAGHGERDLGNTITTPSTPELQGINPVFLSSNPSQWSVEEVYEFIASLQGCQEIAEEFRSQEIDGQALLLLKEEHLMSAMNIKLGPALKICAKINVLKET

binding [3]: no binding
B3: Rybp (protein, UniProt Q8CCI5 1-228)
chain: MTMGDKKSPTRPKRQAKPAADEGFWDCSVCTFRNSAEAFKCSICDVRKGTSTRKPRINSQLVAQQVAQQYATPPPPKKEKKEKVEKPDKEKPEKDKDISPSVTKKNTNKKTKPKSDILKDPPSEANSIQSANATTKTSETNHTSRPRLKNVDRSTAQQLAVTVGNVTVIITDFKEKTRSSSTSSSTVTSSAGSEQQNQSSSGSESTDKGSSRSSTPKGDMSAVNDESF

binding [4]: binds
B4: PHC1 (protein, UniProt P78364 1-1004)
chain: METESEQNSNSTNGSSSSGGSSRPQIAQMSLYERQAVQALQALQRQPNAAQYFHQFMLQQQLSNAQLHSLAAVQQATIAASRQASSPNTSTTQQQTTTTQASINLATTSAAQLISRSQSVSSPSATTLTQSVLLGNTTSPPLNQSQAQMYLRPQLGNLLQVNRTLGRNVPLASQLILMPNGAVAAVQQEVPSAQSPGVHADADQVQNLAVRNQQASAQGPQMQGSTQKAIPPGASPVSSLSQASSQALAVAQASSGATNQSLNLSQAGGGSGNSIPGSMGPGGGGQAHGGLGQLPSSGMGGGSCPRKGTGVVQPLPAAQTVTVSQGSQTEAESAAAKKAEADGSGQQNVGMNLTRTATPAPSQTLISSATYTQIQPHSLIQQQQQIHLQQKQVVIQQQIAIHHQQQFQHRQSQLLHTATHLQLAQQQQQQQQQQQQQQQPQATTLTAPQPPQVPPTQQVPPSQSQQQAQTLVVQPMLQSSPLSLPPDAAPKPPIPIQSKPPVAPIKPPQLGAAKMSAAQQPPPHIPVQVVGTRQPGTAQAQALGLAQLAAAVPTSRGMPGTVQSGQAHLASSPPSSQAPGALQECPPTLAPGMTLAPVQGTAHVVKGGATTSSPVVAQVPAAFYMQSVHLPGKPQTLAVKRKADSEEERDDVSTLGSMLPAKASPVAESPKVMDEKSSLGEKAESVANVNANTPSSELVALTPAPSVPPPTLAMVSRQMGDSKPPQAIVKPQILTHIIEGFVIQEGAEPFPVGCSQLLKESEKPLQTGLPTGLTENQSGGPLGVDSPSAELDKKANLLKCEYCGKYAPAEQFRGSKRFCSMTCAKRYNVSCSHQFRLKRKKMKEFQEANYARVRRRGPRRSSSDIARAKIQGKCHRGQEDSSRGSDNSSYDEALSPTSPGPLSVRAGHGERDLGNPNTAPPTPELHGINPVFLSSNPSRWSVEEVYEFIASLQGCQEIAEEFRSQEIDGQALLLLKEEHLMSAMNIKLGPALKICAKINVLKET
